In the BET-seq Pho4 binding data (Le et al. 2018):
Some of the results follow. The energies were worked out here from pooled read counts, against the library average; single values are noisy.

target: T1, Pho4 (S. cerevisiae) (UniProt P07270); assay: relative binding free energy (BET-seq); higher = weaker binding; settings: reference: library average
T1 sequence: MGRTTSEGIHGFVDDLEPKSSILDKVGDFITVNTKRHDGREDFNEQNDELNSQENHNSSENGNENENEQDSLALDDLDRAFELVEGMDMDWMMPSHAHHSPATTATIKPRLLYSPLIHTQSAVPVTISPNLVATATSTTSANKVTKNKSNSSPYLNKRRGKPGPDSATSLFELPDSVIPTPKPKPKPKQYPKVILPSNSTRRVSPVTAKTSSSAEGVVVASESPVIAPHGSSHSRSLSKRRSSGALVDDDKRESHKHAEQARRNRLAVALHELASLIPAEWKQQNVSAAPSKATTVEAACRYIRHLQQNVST

Sequence | relative binding free energy [kcal/mol]
TGAGGCACGTGTGACT | 0.06
ATGTTCACGTGGCAAA | 0.25
ATGATCACGTGGAGTC | 0.19
TGGCACACGTGTGGTA | 0.17
TGTATCACGTGGCTAT | 0
ATGGGCACGTGCACGG | -0.25
TATATCACGTGAGTTT | 0.38
GATTTCACGTGTCGTG | 0.33
GCGTTCACGTGAAGGG | 0.37
AAGGACACGTGATGGC | 0.24
TTGGTCACGTGAGTGG | 0.4
GTTGTCACGTGCAGTG | 0.04
AGGTTCACGTGGACAT | 0.16
TTCGTCACGTGTGATG | 0.18
CTGGTCACGTGCTTGT | 0.01
AAGAGCACGTGGTAAT | -0.05
GGTTTCACGTGTATGA | 0.27
TTTGGCACGTGCTGCA | -0.13
GACATCACGTGGGGGA | 0.09
ATCATCACGTGTCGTG | 0.24
TCTGTCACGTGATTAT | 0.09
GTGTACACGTGATATG | -0.06
GTCACCACGTGGTGGG | 0

Sequence | relative binding free energy [kcal/mol]
GTACTCACGTGGATGT | 0.28
GGGTCCACGTGACGTG | 0.1
GGGTACACGTGATCAG | 0.38
GGTAACACGTGGACTG | 0.02
GGGATCACGTGGGTGG | 0.08
ACCGGCACGTGTTGGG | -0.04
ATAGGCACGTGGGTGT | -0.23
CGGGCCACGTGAGAGG | 0.05
TTGCGCACGTGTGGCT | 0.02
GATGGCACGTGGGAAG | -0.14
CCGGGCACGTGTATGG | -0.09
ATTGGCACGTGGATTG | -0.18
AAGGACACGTGTGATA | 0.23
ATTTTCACGTGAGTTA | 0.26
TAACGCACGTGGTCGG | -0.13
CCTGGCACGTGGAGGG | -0.18
TAAGTCACGTGTCTGG | 0.12
TAGTACACGTGGGAAT | -0.05
TCTTTCACGTGATAGT | 0.19
TCAGTCACGTGCATGT | 0.09
TGATGCACGTGATTGC | 0.11
ACTGTCACGTGTAAGG | 0.15
TCGTCCACGTGGGTGT | -0.08

Sequence | relative binding free energy [kcal/mol]
TAGTGCACGTGGTTCT | -0.2
AGCGGCACGTGGCGTG | -0.11
GGAAGCACGTGGGACG | -0.09
TGACGCACGTGTGGTG | -0.08
CTGGTCACGTGGATAG | 0.1
GAAAGCACGTGGTGCG | -0.01
AAGGGCACGTGTGATA | -0.09
TGGGACACGTGTCGAG | -0.01
AAGTTCACGTGACTGG | 0.39
GGGGTCACGTGTGCAA | 0.13
TGAGGCACGTGACATG | -0.05
TCTGGCACGTGCGTGT | -0.28
GTGATCACGTGATGCT | 0.25
GCGGGCACGTGGCGAG | -0.12
TCATTCACGTGTGGGC | 0.1
GATTTCACGTGGGAGT | 0.3
GAGCTCACGTGTTAGG | 0.31
AGTTACACGTGTGATA | 0.11
TTATACACGTGTGGAA | 0.08
GGGGCCACGTGGAGAC | 0.09
GTTCACACGTGTTGTG | 0.02
CTAGGCACGTGGTTTG | -0.11
TTTAACACGTGAGATT | 0.24

Sequence | relative binding free energy [kcal/mol]
ATCGTCACGTGATAGT | 0.14
TTGATCACGTGTTTAT | 0.12
TTCATCACGTGAGCGT | 0.4
AGGTACACGTGTGGAC | 0.11
GGACGCACGTGTGTTT | -0.06
TAGAGCACGTGGAGAG | 0.03
CTGAGCACGTGAGGCG | 0.19
GTGAGCACGTGGATAT | -0.02
TTAGGCACGTGCGGCG | -0.2
TTAACCACGTGAAGGG | 0.19
GAGTACACGTGTCTTT | 0.2
AACTTCACGTGGATGT | 0.2
GCAGTCACGTGTGTGT | 0.13
TCTTTCACGTGGTGCG | 0.13
AATTTCACGTGGGGTA | 0.18
GGATGCACGTGGAGCT | 0.05
GGATCCACGTGGGGGG | -0.07
CTCGGCACGTGTCGGA | 0.28
GGGGGCACGTGTTCGT | -0.17
GGACGCACGTGGGGCG | -0.08
TGTGTCACGTGCGCAA | -0.05
GGATACACGTGCGGGG | -0.04
TTGGACACGTGGGGTA | -0.03

Sequence | relative binding free energy [kcal/mol]
TCTAGCACGTGTGGGA | -0.06
ATTAACACGTGAGAGG | 0.33
AAATGCACGTGTTGTT | 0.04
TGCCTCACGTGGGTTA | 0.02
TTAAGCACGTGGATAT | -0.04
TGTTGCACGTGTTAAA | 0.01
CATGACACGTGTTGGG | 0.05
GGTCTCACGTGTCGGG | 0.1
TTGGACACGTGCCGGG | -0.04
TGGTGCACGTGGCCTT | -0.1
AACATCACGTGGTGTG | 0.16
TGAAACACGTGTCGGG | 0.03
GGTTGCACGTGACTTG | 0.17
GCGTGCACGTGGCTTG | 0.03
AGTGGCACGTGGGCAG | -0.19
AGGACCACGTGGATGT | 0.06
GTATGCACGTGAGGAT | 0.21
GAGTGCACGTGGAATA | 0.11
GTGTACACGTGCGGGG | 0.13
GCTTACACGTGGTGGT | 0.05
GCCGGCACGTGGTGAG | -0.07
GATAGCACGTGTGGTG | -0.1
GGCTGCACGTGGGGGA | -0.15
